Test results published in PMC12040169 (PLOS Biology, 2025).
The list shows a part of the results.

These compounds were tested on T1, C. trachomatis L2/434/Bu expressing GFP (CTL2-GFP). Conditions: total inclusion area; 28.5 h, 10 µM; inhibitor.
T1 construct: L2/434/Bu GFP intracellular growth in HeLa cells
Set-up: species or system HeLa; C. trachomatis total inclusion area by high-content imaging, normalised to DMSO
Outline: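 High-content imaging followed the bulk GFP/resorufin measurement: fixed, Hoechst-stained cells were scored for GFP inclusions and host nuclei per well. Total inclusion area and count served as growth proxies, nuclei number as the viability proxy. MIC calculation matched the bulk assay.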

Structure (SMILES) | % of control remaining
COc1ccccc1OCCOc1cccc(/C=N/n2cnnc2)c1 [CBK263288] | 26.5134
O=C(CSCc1nc(O)c2c3c(sc2n1)CCCC3)NC1CCCCC1 [CBK265684] | 115.437
CC(=O)Nc1ccc(C(=O)CSc2nc(-c3ccccc3)cs2)cc1 [CBK268038] | 107.733
COc1cc(CN2CCN(C(=O)c3ccccc3)CC2)cc(OC)c1O [CBK263462] | 85.6208
CCn1cc(C(=O)N2CCCCC2c2nc3ccccc3[nH]2)c(C)n1 (centres unmarked) [CBK283778] | 77.044
OCC1CCCN1c1cncc(-c2ccc3ccccc3c2)n1 (centres unmarked) [CBK037197] | 81.9064
COc1ccc(-n2cnc3ccccc3c2=O)cc1 [CBK288145] | 98.5063
N/C(=N\OC(=O)CCCc1ccccc1)c1ccc(Cl)cc1 [CBK264454] | 81.6318
CCn1cc(S(=O)(=O)Nc2cc(C)on2)cn1 [CBK270302] | 79.5057
O=C(c1cc[nH]n1)N1CCc2nc(-c3cccc(F)c3)sc2C1 [CBK281915] | 89.0821
CS(=O)(=O)N(Cc1ccc(Cl)cc1)c1ccc(C(=O)N2CCC(C(N)=O)CC2)cc1 [CBK265327] | 101.05
O=C(O)c1ccc(NC(=O)c2cn(-c3ccccc3)nc2-c2cc3ccccc3oc2=O)cc1 [CBK266432] | 116.06
COc1ccc(-n2ncc3c2CCCN(C(=O)C2CCCC2)C3)cc1 [CBK284501] | 39.0724
COc1ccc(C2=NNC(=O)C(c3ccc(OC)cc3)C2)cc1 (centres unmarked) [CBK287908] | 123.264
O=C(O)c1ccc(S(=O)(=O)c2ccc(C(=O)O)c(C(=O)O)c2)cc1C(=O)O [CBK022872] | 84.7164
Nc1cc(-c2ccccc2)nn1-c1ccc(C(=O)O)cc1 [CBK286565] | 88.073
O=C(COc1ccc(S(=O)(=O)N2CCOCC2)cc1)NCc1ccco1 [CBK268377] | 83.8941
COCCNC(=O)c1cc(-c2cccc(C(=O)N(C)C)c2)cnc1N1CCOCC1 [CBK076464] | 108.786
CC(=O)Nc1cccc(Oc2nccnc2-c2ccc(F)cc2)c1 [CBK106900] | 4.465
CCC(=O)N1CCCC1c1nc(C)c2c(n1)N(CCc1ccccc1OC)CCC2 (centres unmarked) [CBK286246] | 107.79
O=C1CCC(=O)N1CCOc1nccnc1OC1CCN(CCc2ccccn2)CC1 [CBK084360] | 93.5231

Structure (SMILES) | % of control remaining
CS(=O)(=O)Nc1cc2ccccc2c(-c2cccnc2)n1 [CBK085747] | 104.158
CSc1nnc(-c2cccs2)n1C [CBK067702] | 48.914
Cn1nnc2cc(NC(=O)NCc3csc(N4CCOCC4)n3)ccc21 [CBK307492] | 46.7697
Cn1cc(NC(=O)N2CCCN(Cc3ccccn3)CC2)nn1 [CBK307034] | 85.8745
CC(COC(C)(C)C)Oc1nccnc1OCc1ccc(Cl)c(Cl)c1 (centres unmarked) [CBK161607] | 99.4895
Cc1cc(C[C@@H]2COC[C@H]2NCCc2ccccc2)on1 [CBK284882] | 99.9679
COc1ccccc1Cn1ncc2c1CCCC2NC(=O)C1CCC1 (centres unmarked) [CBK282895] | 81.2981
O=C(C1CCCC1)N1CCC(c2nnc3n2CCCCC3)CC1 [CBK284612] | 94.6094
COc1ccc(CN2CCCN(C(=O)c3ccnc(Cl)c3)CC2)cc1 [CBK305364] | 101.462
O=C(O)C1(Oc2ccc3ncccc3c2)CCN(CC2CCOC2)CC1 (centres unmarked) [CBK307336] | 31.5537
Cc1cccc(OCC(=O)NC(=S)Nc2ccccc2N2CCCCC2)c1C [CBK266298] | 83.7712
Cc1ccc2[nH]c3c(c2c1)CCCC3NCC(O)Cc1ccccc1 (centres unmarked) [CBK263154] | 63.8001
Cc1ccc2oc(C(=O)Nc3ccc(-n4cnnn4)cc3)c(C)c2c1 [CBK287804] | 106.549
CCOC(=O)CC(=O)CSc1nc(C)cc(-c2cccnc2)c1C#N [CBK267460] | 110.252
Cc1nccn1-c1ccc(NC(=O)C2CC(=O)N(C3CCCC3)C2)cc1F (centres unmarked) [CBK298286] | 84.2479
Nc1ccc(-c2cnc(NCc3ccc4c(c3)OCO4)c(C(=O)Nc3ccc4c(c3)OCCO4)c2)cc1 [CBK138480T] | 60.9018
CC(=O)c1cccc(-c2nc(CC3CCN(C)CC3)nn2CCO)c1 [CBK306645] | 83.5476
CCOc1ccccc1NC(=O)Nc1cccc(S(N)(=O)=O)c1 [CBK057282] | 98.1861
OCCNc1nccnc1Cl [CBK089793] | 25.2945
CCSc1nc2ccccc2n1C(=O)c1ccc(S(=O)(=O)N2CCCCCC2)cc1 [CBK265825] | 69.3298
